Target: T1, wild type human MIC-1 (human, UniProt Q99988 197-308)
T1 construct: also called wtMIC-1; hMIC-1
T1 sequence: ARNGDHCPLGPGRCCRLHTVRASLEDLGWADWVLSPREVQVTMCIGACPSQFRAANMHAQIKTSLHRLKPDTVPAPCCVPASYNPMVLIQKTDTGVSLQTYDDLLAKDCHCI
Test: SPR, Biacore 4000; hRet(ECR)-Fc immobilised through Fc
Procedure: hRet and complex of hGFRAL and MIC-1 interactions were assessed by SPR-based binding assay. A Biacore® 4000 (GE Healthcare, Piscataway, N.J., USA) instrument was used. The assays were performed at 25° C. at flow rates of 30 μL/minute in 1× HBS-P running buffer (BR-1006-71, GE Healthcare, Piscataway, N.J., USA). hRet(ECR)-Fc was immobilized through Fc as ligand on the chip. VISTA-Fc was immobilized as negative control ligand. The complex of MIC-1 and hGFRAL was prepared by pre-incubating wtMIC-1 with hGFRAL(ECR)-His. wtMIC-1, hGFRAL(ECR)-His, complex of wtMIC-1 and Ctrl-His, and complex of wtMIC-1 and hGFRAL(ECR)-His at various concentration were run as flow-through analyte.
Thus, it can be concluded that that hRet binds to hGFRAL in the presence of MIC-1; and Ret, MIC-1 and GFRAL forms a ternary complex.

binding result: no binding (tested: 1000 nM)
B1: hRET(ECR)-hIgG1.1_Fc (Fc fusion)
chain: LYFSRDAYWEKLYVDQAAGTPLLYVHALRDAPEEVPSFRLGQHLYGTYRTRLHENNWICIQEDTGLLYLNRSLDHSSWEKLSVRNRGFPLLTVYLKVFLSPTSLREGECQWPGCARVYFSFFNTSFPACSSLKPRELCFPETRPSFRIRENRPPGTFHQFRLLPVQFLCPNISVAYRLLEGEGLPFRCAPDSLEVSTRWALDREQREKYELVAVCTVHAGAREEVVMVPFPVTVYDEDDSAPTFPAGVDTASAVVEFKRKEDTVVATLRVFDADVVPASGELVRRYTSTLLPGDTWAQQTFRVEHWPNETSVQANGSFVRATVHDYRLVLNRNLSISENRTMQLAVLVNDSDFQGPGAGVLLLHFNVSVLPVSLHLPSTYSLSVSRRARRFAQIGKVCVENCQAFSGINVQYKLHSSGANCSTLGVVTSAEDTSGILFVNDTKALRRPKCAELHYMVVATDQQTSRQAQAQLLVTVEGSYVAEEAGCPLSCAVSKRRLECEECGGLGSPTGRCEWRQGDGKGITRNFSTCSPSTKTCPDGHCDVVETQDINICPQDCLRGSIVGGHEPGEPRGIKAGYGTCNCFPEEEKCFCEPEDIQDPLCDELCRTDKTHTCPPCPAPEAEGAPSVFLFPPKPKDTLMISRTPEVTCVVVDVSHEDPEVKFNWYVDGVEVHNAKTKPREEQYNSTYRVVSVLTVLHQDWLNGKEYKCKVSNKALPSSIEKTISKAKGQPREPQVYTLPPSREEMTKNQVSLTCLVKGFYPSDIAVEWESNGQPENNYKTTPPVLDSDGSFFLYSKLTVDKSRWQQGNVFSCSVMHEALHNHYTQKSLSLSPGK
notes: also called hRET(ECR)-Fc; hRet(ECR)-Fc
